The test system of this experiment is NCI-H322M lung. Nature of the experiment: inhibition of tumour cell growth, NCI panel, 48 h.

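A five-concentration, 48-hour dose response in 96-well plates underlies each endpoint, interpolated linearly between surrounding concentrations. GI50 is the concentration that inhibits growth by half. TGI: concentration producing complete growth inhibition.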

As to `O=C(CSc1nnc(-c2ccc(-c3nc4ccc(Cl)cc4[nH]3)cc2)o1)Nc1ccc(Cl)cc1`, the GI50 is 3.31 µM and the TGI came to 15.5 µM.

On to `COc1cc2cc(C(=O)N3C[C@@H](CCl)c4c3cc(OC(=O)N(C)CCSSCCN3CCOCC3)c3ccccc43)[nH]c2c(OC)c1OC`, for which the GI50 is 0.298 µM and the TGI was 1.19 µM.

With `Cc1ccc(-c2nc(C#N)c(S(=O)(=O)N3CCN(S(=O)(=O)c4ccccc4)CC3)o2)cc1`, the GI50 was above 100 µM and the TGI was above 100 µM.

Turning to `COc1ccc2[nH]cc(-c3cc4nc(-c5cn(C)c6ncccc56)cc(N)n4n3)c2c1`, the GI50 was 4.9 µM and the TGI worked out at 19.4 µM.

The record behind these values is PubChem BioAssay (NCI).
